In PMC7819943, “Rice protein-binding microarrays: a tool to detect cis-acting elements near promoter regions in rice” one finds binding signal data, which are given here for 42 sequences.

Some of the results follow.

This experiment has as its target T1, OsWOX13 (Oryza sativa, UniProt Q5QMM3 1-267).
T1 sequence: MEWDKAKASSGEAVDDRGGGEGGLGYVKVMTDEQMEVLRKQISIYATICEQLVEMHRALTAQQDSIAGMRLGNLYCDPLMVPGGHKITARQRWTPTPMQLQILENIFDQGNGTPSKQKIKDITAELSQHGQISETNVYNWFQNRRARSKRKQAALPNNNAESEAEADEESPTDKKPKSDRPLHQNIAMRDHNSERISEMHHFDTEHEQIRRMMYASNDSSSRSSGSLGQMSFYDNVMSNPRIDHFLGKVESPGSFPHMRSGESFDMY
Description: protein-binding microarray (RPBM); PBS, 2% BSA, 51.3 ng/ul salmon testes DNA, 50 uM zinc acetate, 200 nM TF, 25 C, 1 h; high values mean tight binding. To be noted: protein: recombinant; tags: N-terminal polyhistidine and DsRed monomer fusion (pET32a); label: CyDye5-dUTP incorporated in the synthesized complementary strand; 3' TTTTT single-stranded linker to array surface; dsDNA, one strand shown. The gist of the method: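 Using Ni–NTA, transcription factors fused N-terminally to polyhistidine and DsRed were purified after expression in E. coli BL21-CodonPlus. These were incubated at 200 nM with a blocked, double-stranded custom Agilent array for 1 h at 25 °C in a buffer containing 50 µM zinc acetate, and the array was washed. The binding signal is per-feature fluorescence intensity (arbitrary units) on an Axon 4000B scanner.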
As to “TTGAAATTGGAGATGATGTGACTGAAAAGTTGTGTGTGTACGGAGTCACCTAGTGCAG”, the binding signal was 21000 fluorescence intensity (a.u.).

Regarding “ACATAGAATCATCTTAATTGTGCGGAAGAAACAAAGCATGCGGAGTCACCTAGTGCAG”, the binding signal is 3900 fluorescence intensity (a.u.).

Take “AGATCGATTGATGATATCTCTCGGTTATGACTTTTAGTAGCGGAGTCACCTAGTGCAG”: the binding signal is 8770 fluorescence intensity (a.u.).

Consider “TTCTAATTTTACATTGTCCAAAACAAACGGTAGGGCGCCGCGGAGTCACCTAGTGCAG”, for which the binding signal is 7730 fluorescence intensity (a.u.).

On to “ATTAATGGCTTTGATGTGTTCTGCGTGTGATAAGATCTAACGGAGTCACCTAGTGCAG”, for which the binding signal is 3380 fluorescence intensity (a.u.).

For “GCACTAAATGATTAGATGAAGGACAAGGACTAAGAGGAGGCGGAGTCACCTAGTGCAG”, the binding signal is 43300 fluorescence intensity (a.u.).

Take “CAAAATGGACAAAATATGTCATCTATTAAAATAGGCATAACGGAGTCACCTAGTGCAG”: the binding signal is 4880 fluorescence intensity (a.u.).

Consider “TGGTGATTAACTACAACTAATTGTCAATCTAACACTCCCACGGAGTCACCTAGTGCAG”, for which the binding signal is 50400 fluorescence intensity (a.u.).

Take “TTGTGTAATGATATATCACATATTGATGTATATTACTCCCCGGAGTCACCTAGTGCAG”: the binding signal was 6370 fluorescence intensity (a.u.).

With “CATTGGAAATTGTTTATATCATTGAGAATAAACAAGGAAGCGGAGTCACCTAGTGCAG”, the binding signal is 3310 fluorescence intensity (a.u.).

On to “CTCCAGTTATCTTTTAATTTTCCGCTGCATTTATGTAAGACGGAGTCACCTAGTGCAG”, for which the binding signal is 6990 fluorescence intensity (a.u.).

Regarding “AATACTAATTTGGAATTTTCCATCAATGACGTTACACAAACGGAGTCACCTAGTGCAG”, the binding signal was 22100 fluorescence intensity (a.u.).

In the case of “CTTGACAGGCACCGTGATACTTGGGTTCTTGATATAACTGCGGAGTCACCTAGTGCAG”, the binding signal is 34400 fluorescence intensity (a.u.).

For the sequence “TCAAATTTTAATGTTTATAAATATTACACATATGTAGTGGCGGAGTCACCTAGTGCAG”, the binding signal was 9930 fluorescence intensity (a.u.).

In the case of “TGCACAGATCCATGATTGGCTGGTTAAAACTCAAAATCACCGGAGTCACCTAGTGCAG”, the binding signal was 18300 fluorescence intensity (a.u.).

For “CATGAAATTTGGGTGTTCATTACCATGATTGTGACTTTATCGGAGTCACCTAGTGCAG”, the binding signal is 5190 fluorescence intensity (a.u.).

As for “TTTAATAATTTACGTTTATATACCTGCATTGGACGGATCCCGGAGTCACCTAGTGCAG”, the binding signal was 22000 fluorescence intensity (a.u.).

For “ATGATGCATGATTGAGTTGTTATCTGAGCACTTAGAGGTGCGGAGTCACCTAGTGCAG”, the binding signal is 34400 fluorescence intensity (a.u.).

With “GGCTCATTGATTACGGTAAAATAGAGGTATAAAGGTTATACGGAGTCACCTAGTGCAG”, the binding signal is 19900 fluorescence intensity (a.u.).

For the sequence “CCAATGATTGATCGATTTCTCTCCATACGCCGTGTGCCAACGGAGTCACCTAGTGCAG”, the binding signal is 59700 fluorescence intensity (a.u.).

Regarding “CCGGATGATATATAATTGCACGCATGGCATTTCATGATGCCGGAGTCACCTAGTGCAG”, the binding signal was 21200 fluorescence intensity (a.u.).

Consider “TGCCTTTGATTAATGTCATGATGTCACATGCTGAGATTCACGGAGTCACCTAGTGCAG”, for which the binding signal is 11900 fluorescence intensity (a.u.).

Take “AATAATATCAATGATGGACGTTTGGTAACTAAATGTTAATCGGAGTCACCTAGTGCAG”: the binding signal is 11300 fluorescence intensity (a.u.).

As for “AAACATTTAATTTCTAACACCTAATATGCACAAACACACACGGAGTCACCTAGTGCAG”, the binding signal was 3920 fluorescence intensity (a.u.).

In the case of “GGTGATTTTATATATATTCACGCATTTCGTGGACCTTCTTCGGAGTCACCTAGTGCAG”, the binding signal was 7570 fluorescence intensity (a.u.).

Take “GATAATTTAATTGTGATGATTTACTCAGCTTGTTTGCAGTCGGAGTCACCTAGTGCAG”: the binding signal was 47500 fluorescence intensity (a.u.).

“TTCTCCATTCCAAATTAAATTATGGGATAAACATATCGTACGGAGTCACCTAGTGCAG”: the binding signal was 8190 fluorescence intensity (a.u.).

In the case of “CAACCAATCAACTTAGGGCATTATTAGCAGTTTAATAGTACGGAGTCACCTAGTGCAG”, the binding signal is 10900 fluorescence intensity (a.u.).

Turning to “TAAACTTATAATTATAATGTTATAATAATATTTGAAGGCACGGAGTCACCTAGTGCAG”, the binding signal is 19500 fluorescence intensity (a.u.).

Regarding “TAACAAGATGATTATGCGCGTATGTTTATGAGAGTGAGTGCGGAGTCACCTAGTGCAG”, the binding signal is 5630 fluorescence intensity (a.u.).

As to “ACAAATTAGAAATTTGGAACAAAGGCTAGTCGCTACCTCACGGAGTCACCTAGTGCAG”, the binding signal is 22100 fluorescence intensity (a.u.).

For “GGATAGATTGTTGTTGTCCCAAACTTGTGGCTCTGTGCTGCGGAGTCACCTAGTGCAG”, the binding signal was 18300 fluorescence intensity (a.u.).

In the case of “TGTACTGATAGCGTGATTGAATTCATGGCCTCTTTCTGCCCGGAGTCACCTAGTGCAG”, the binding signal was 44400 fluorescence intensity (a.u.).

For the sequence “TCTGCAATTACACGCGTTAAATTTGACACTACTACAATTTCGGAGTCACCTAGTGCAG”, the binding signal was 22000 fluorescence intensity (a.u.).

In the case of “GTCTACGGGGAATTTAATTGCTTGGTACTACTTACTTGGTCGGAGTCACCTAGTGCAG”, the binding signal is 4380 fluorescence intensity (a.u.).

As for “GAAGCAATCAAGCAGTAGCATCATATTGTCCACATCGTCGCGGAGTCACCTAGTGCAG”, the binding signal is 4490 fluorescence intensity (a.u.).

For the sequence “GAGTTCAGGATCAATCAGTTTGACCAACCAAACAACTTCACGGAGTCACCTAGTGCAG”, the binding signal was 4980 fluorescence intensity (a.u.).

Turning to “AACCACTCACTAGTGCTAATTGTTTTATTTAACATTGATTCGGAGTCACCTAGTGCAG”, the binding signal was 6540 fluorescence intensity (a.u.).

On to “CATGACTGTCTGTTTGAATTCCAAACACATACGTAATACACGGAGTCACCTAGTGCAG”, for which the binding signal was 7910 fluorescence intensity (a.u.).

Regarding “AGCGATTAGTAAGTGGATTGGATCTAACTAAGCTTGCTACCGGAGTCACCTAGTGCAG”, the binding signal is 9310 fluorescence intensity (a.u.).

Turning to “CATGCATGCTTTGATGAGAGTAATTAAGTACGGCAAGCATCGGAGTCACCTAGTGCAG”, the binding signal was 3200 fluorescence intensity (a.u.).

For “TGTAGTGATTTACTTCTTTTCAATATGCCTTCGTTTAATTCGGAGTCACCTAGTGCAG”, the binding signal is 4790 fluorescence intensity (a.u.).
